Source: patent US12221481B2, “CD19 binding molecules and uses thereof” (Novartis AG, priority 2019, dated 2025)

Columns and labels:
Oci-Ly19 target cells = test: RTCC against Oci-Ly19 (Example 22); type: cell-based, human; conditions: E:T 1:1, 48 hour
Method: (§1) The purified TBMs were compared across multiple donor effector cells. Briefly, huCD19-expressing Nalm6 and Karpas422 target cells were engineered to overexpress firefly luciferase. Cells were harvested and resuspendend in RPMI medium (Invitrogen #11875-093) with 10% FBS. 5,000 target cells per well were plated in a flat-bottom 384-well plate. Human pan T effector cells were isolated via negative selection (Stemcell Technologies #17951) from two donors from cryopreserved PBMCs that were separated from a leukopak (Hemacare #PB001F-1) by Ficoll density gradient centrifugation. Purified T cells were then added to the plate to obtain a final E:T ratio of 3:1, 1:1, 1:3 or 1:5. Co-cultured cells were incubated with serial dilutions of all constructs and controls. For normalization, average maximum luminescence refers to target cells co-incubated with effector cells, but without any test construct. After an incubation of 48, 72 or 96 hr at 37° C., 5% CO2, OneGlo luciferase substrate (Promega #E6120) was added to the plate. Luminescence was measured on an Envision plate reader after a 10 minute incubation. Percent specific lysis was calculated using the following equation: Specific lysis (%)=(1−(sample luminescence/average maximum luminescence))*100
(§2) Nalm6 KO was generated from Nalm6 parental cell line by using CRISPR-CAS9 technology and was confirmed to lack hCD19 expression. Oci-Ly19, Toledo, Nalm6, Nalm6 KO and K562 target cells were engineered to overexpress firefly luciferase. RTCC assays were performed with the different cells lines according to the Materials and Methods described in Example 9, but with a final E:T ratio of 1:1 and a 48 hour incubation.

Toledo target cells = test: RTCC against Toledo (Example 22); type: cell-based, human; conditions: E:T 1:1, 48 hour
Method: as §1, §2

T cells = test: Re-challenge T cell phenotyping with Karpas 422 and OCI-LY-19; type: cell-based, human; conditions: 1 nM, after third challenge, Karpas 422 and OCI-LY-19 models
Method: OCI-LY-19 and Karpas422 target cells stably expressing firefly luciferase were plated in a Costar 6 well plate in T Cell Media (TCM). PBMCs previously isolated and cryopreserved from 2 Leukopak donors were thawed and Pan T cells were isolated (as described earlier). Co-cultures of T cells and OCI-LY-19 or Karpas 422 cells at E:T ratio of 1:1 was set-up and 1 nM of CD3hi BSP1, CD3med TSP1, or CD3hi TSP1 was added. The plates were incubated for 4 days for OC-LY-19 and 5 days for Karpas 422 cells. At the end of incubation, the killing of target cells and absolute T cell counts from each antibody treated condition was determined. The T cell counts were normalized across different antibody conditions and two additional rounds of re-challenges were set-up the same way as the previous challenge with a 4 day incubation for both target cells, for a total of three challenges. After the third challenge, T cells from different antibody treated conditions were harvested on day 2 from the Karpas 422 co-cultures and on day 4 from OCI-LY-19 co-cultures and split into 2 fractions. One fraction was stained with blue fixable viability dye (ThermoFisher Scientific, Cat #L23105) prior to staining with a cocktail of anti-human CD3 (Biolegend, Cat #317324), CD4 (Biolegend, Cat #344608), CD8 (BD Biosciences, Cat #563795), CD27 (Biolegend, Cat #356412) & CD62L mAb (Biolegend, Cat #304814). […]

[1] = system: OCI-LY-19 diffuse large B-cell lymphoma (DLBCL) tumor; test: OCI-LY-19 DLBCL subcutaneous tumor model, human PBMC adoptive transfer, NSG mice (Example 28); conditions: for Δ Body weight from post-dose (Mean ± SEM) Day 25 / Δ Tumor burden from post-dose (Mean) Day 25 / ΔT/ΔC / Regression: single dose IV; for ΔT/ΔC / Regression: Day 25
[2] = system: OCI-LY-19 DLBCL subcutaneous tumor; test: OCI-LY-19 DLBCL subcutaneous tumor model in huCD34+ NSG mice, single dose, dose range finding (Example 30)
[3] = statement made for the study as a whole

B1: CD3hi TSP1: Trispecific binding molecule: NEG258-based CD19 Fab, CD3hi anti-CD3 scFv, CD58 IgV domain, knob-into-hole silenced hIgG1 Fc (antibody)
heavy: QVQLVQSGAEVKKPGASVKVSCKASGYTFTTYWIQWVRQAPGQRLEWMGAVYPGDADTRYTQKFQGRVTLTADRSASTAYMELSSLRSEDTAVYYCGRDAGLEYYALDYWGQGTLVTVSSASTKGPSVFPLAPSSKSTSGGTAALGCLVKDYFPEPVTVSWNSGALTSGVHTFPAVLQSSGLYSLSSVVTVPSSSLGTQTYICNVNHKPSNTKVDKRVEPKSCGGGGSGGGGSEVQLVESGGGLVQPGGSLKLSCAASGFTFNTYAMNWVRQASGKGLEWVGRIRSKYNNYATYYADSVKDRFTISRDDSKSTLYLQMNSLKTEDTAVYYCVRHGNFGNSYVSWFAYWGQGTLVTVSSGGGGSGGGGSGGGGSGGGGSQAVVTQEPSLTVSPGGTVTLTCRSSTGAVTTSNYANWVQQKPGQAPRGLIGGTNKRAPWTPARFSGSLLGDKAALTLSGAQPEDEAEYFCALWYSNLWVFGGGTKLTVLGGGGSDKTHTCPPCPAPELLGGPSVFLFPPKPKDTLMISRTPEVTCVVVAVSHEDPEVKFNWYVDGVEVHNAKTKPREEQYASTYRVVSVLTVLHQDWLNGKEYKCKVSNKALAAPIEKTISKAKGQPREPQVCTLPPSREEMTKNQVSLSCAVKGFYPSDIAVEWESNGQPENNYKTTPPVLDSDGSFFLVSKLTVDKSRWQQGNVFSCSVMHEALHNHYTQKSLSLSPGK
light: EIVMTQSPATLSVSPGERATLSCRASQDVGTAVAWYQQKPGQAPRLLIYWASTRHTGIPARFSGSGSGTEFTLTISSLQSEDFAVYFCQQYANFPLYTFGQGTKLEIKRTVAAPSVFIFPPSDEQLKSGTASVVCLLNNFYPREAKVQWKVDNALQSGNSQESVTEQDSKDSTYSLSSTLTLSKADYEKHKVYACEVTHQGLSSPVTKSFNRGEC
chain: SQQIYGVVYGNVTFHVPSNVPLKEVLWKKQKDKVAELENSEFRAFSSFKNRVYLDTVSGSLTIYNLTSSDEDEYEMESPNITDTMKFFLYVLESGGGGSDKTHTCPPCPAPELLGGPSVFLFPPKPKDTLMISRTPEVTCVVVAVSHEDPEVKFNWYVDGVEVHNAKTKPREEQYASTYRVVSVLTVLHQDWLNGKEYKCKVSNKALAAPIEKTISKAKGQPREPQVYTLPPCREEMTKNQVSLWCLVKGFYPSDIAVEWESNGQPENNYKTTPPVLDSDGSFFLYSKLTVDKSRWQQGNVFSCSVMHEALHNHYTQKSLSLSPGK
B1 was tested, and the “cytotoxic activity (specific lysis)” value (Oci-Ly19 target cells) was “showed cytotoxic activity”, the “cytotoxic activity compared between constructs” value (Oci-Ly19 target cells; [3]) was “comparable cytotoxic activity to blinatumomab” and the “cytotoxic activity (specific lysis)” value (Toledo target cells) was “showed cytotoxic activity”. For the same molecule, the “cytotoxic activity compared between constructs” value (Toledo target cells; [3]) was “comparable cytotoxic activity to blinatumomab”, the “cytokine production from the T cells (IL-2, IFNγ)” value (T cells) was “induce better cytokine production from the T cells compared to the other CD19 binders tested” and the “enrichment of younger phenotype of T cells” value (T cells) was “better promoted enrichment of younger phenotype of T cells than CD3med TSP1 and CD3hi BSP1”. The “% ΔT/ΔC” value ([1]; 0.003 mg/kg (so in the source), single IV administration) was 1.38%, the anti-tumor activity ([1]; 0.003 mg/kg, single IV administration) was “not active” and the “Δ Body weight from post-dose (Mean ± SEM) Day 25” value ([1]; 0.003 mg/kg) was 1.7 ± 1.6%. The “Δ Tumor burden from post-dose (Mean) Day 25” value (“Δ Tumor burden from post-dose” for short) ([1]; 0.003 mg/kg) was 198.9588 mm^3, the ΔT/ΔC ([1]; 0.003 mg/kg) was 24.20% and the “Δ Body weight from post-dose (Mean ± SEM) Day 25” value ([1]; 0.01 mg/kg) was −0.7 ± 1.8%. The “Δ Tumor burden from post-dose” value ([1]; 0.01 mg/kg) was 11.38 mm^3, the ΔT/ΔC ([1]; 0.01 mg/kg) was 1.38% and the tumor regression ([1]; 0.03 mg/kg, single IV administration) was 13.74%. The “Δ Body weight from post-dose (Mean ± SEM) Day 25” value ([1]; 0.03 mg/kg) was 1.9 ± 2.0%, the “Δ Tumor burden from post-dose” value ([1]; 0.03 mg/kg) was −29.7413 mm^3 and the Regression ([1]; 0.03 mg/kg) was 13.74* %. For the same molecule, the tumor regression ([1]; 0.1 mg/kg, single IV administration) was 72.41%, the “Δ Body weight from post-dose (Mean ± SEM) Day 25” value ([1]; 0.1 mg/kg) was 1.2 ± 2.3% and the “Δ Tumor burden from post-dose” value ([1]; 0.1 mg/kg) was −155.988 mm^3. For the same molecule, the Regression ([1]; 0.1 mg/kg) was 72.41* %, the tumor regression ([1]; 0.3 mg/kg, single IV administration) was 84.50% and the “Δ Body weight from post-dose (Mean ± SEM) Day 25” value ([1]; 0.3 mg/kg) was −0.4 ± 1.0%. For the same molecule, the “Δ Tumor burden from post-dose” value ([1]; 0.3 mg/kg) was −187.737 mm^3, the Regression ([1]; 0.3 mg/kg) was 84.50* % and the “antibody associated body weight loss” value ([1]; single IV administration, 0.003-0.3 mg/kg) was “no antibody associated body weight loss”. The ΔT/ΔC ([2]; 0.01 mg/kg, single IV dose, Day 24) was 100%, the ΔT/ΔC ([2]; 0.03 mg/kg, single IV dose, Day 24) was 65.8% and the “Δ Body weight from initial (Mean ± SEM) Day 24” value ([2]; 0.03 mg/kg, single dose IV) was −3.32 ± 1.63%. The “Δ Tumor burden from initial (Mean ± SEM) Day 24” value ([2]; 0.03 mg/kg, single dose IV) was 695.0 ± 168.4 mm^3, the ΔT/ΔC ([2]; 0.03 mg/kg, single dose IV, Day 24) was 65.8% and the ΔT/ΔC ([2]; 0.1 mg/kg, single IV dose, Day 24) was 19.5%. The “Δ Body weight from initial (Mean ± SEM) Day 24” value ([2]; 0.1 mg/kg, single dose IV) was −7.06 ± 3.02%, the “Δ Tumor burden from initial (Mean ± SEM) Day 24” value ([2]; 0.1 mg/kg, single dose IV) was 205.9 ± 170.6 mm^3 and the ΔT/ΔC ([2]; 0.1 mg/kg, single dose IV, Day 24) was 19.5* %. The ΔT/ΔC ([2]; 0.3 mg/kg, single IV dose, Day 24) was 0.05%, the “Δ Body weight from initial (Mean ± SEM) Day 24” value ([2]; 0.3 mg/kg, single dose IV) was −6.09 ± 2.34% and the “Δ Tumor burden from initial (Mean ± SEM) Day 24” value ([2]; 0.3 mg/kg, single dose IV) was −0.57 ± 95.0 mm^3. For the same molecule, the ΔT/ΔC ([2]; 0.3 mg/kg, single dose IV, Day 24) was 0.05* %, the tumor regression ([2]; 1.0 mg/kg, single IV dose, Day 24) was 35.3% and the “Δ Body weight from initial (Mean ± SEM) Day 24” value ([2]; 1.0 mg/kg, single dose IV) was −1.96 ± 2.31%. The “Δ Tumor burden from initial (Mean ± SEM) Day 24” value ([2]; 1.0 mg/kg, single dose IV) was −91.6 ± 13.8 mm^3, the Regression ([2]; 1.0 mg/kg, single dose IV, Day 24) was 35.3* % and the “treatment associated body weight loss” value ([2]; across multiple dose levels, single IV dose) was “treatment associated body weight loss”.

Marks after values point to notes of the source that are not given here.
